# Measurements taken from the supplement of paper PMC8728848.
# The other results are listed elsewhere or left out.
# B1: ArathEULS3 (Arabidopsis thaliana), Q945P1 (protein)
# chain: MEHHHQHHRHHQRDDGEDDRQSFGVPPPHVDAPPQPHGLYQSQPHFDPYAPTPQAPAPYRSETQFEPHAPPPYRSEPYFETPAPPPSFGHVSHVGHQSPNESYPPEHHRYGGYQQPSNSLLESHGDHSGVTHVAHHSSNQPQSSSGVYHKPDENRLPDNLAGLAGRATVKVYSKAEPNYNLTIRDGKVILAPADPSDEAQHWYKDEKYSTKVKDADGHPCFALVNKATGEAMKHSVGATHPVHLIRYVPDKLDESVLWTESKDFGDGYRTIRMVNNTRLNVDAYHGDSKSGGVRDGTTIVLWDWNKGDNQLWKIFPFILEQKLISEEDLNSAVDHHHHHH
# What was measured:
# Experiment in all cases: glycan array binding signal (z-score within array); higher = stronger binding
# Details in all cases: glycan notation: IUPAC condensed, linker removed
# [1] = target: Fuc(a1-2)[GalNAc(a1-3)]Gal(b1-3)GlcNAc(b1-2)Man(a1-3)[Fuc(a1-2)[GalNAc(a1-3)]Gal(b1-3)GlcNAc(b1-2)Man(a1-6)]Man(b1-4)GlcNAc(b1-4)GlcNAc
# Summary of the method: (§1)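 Negative Z-scores can be read as non-binding. The Z-score is calculated within each array and then averaged across arrays of one protein sequence at different concentrations or buffers and across linkers. Arrays, 3228 in all, were curated from the Consortium for Functional Glycomics database and kept only where the protein sequence was available.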
# [2] = target: Fuc(a1-2)[GalNAc(a1-3)]Gal(b1-3)GlcNAc(b1-2)Man(a1-3)[Fuc(a1-2)[GalNAc(a1-3)]Gal(b1-3)GlcNAc(b1-2)Man(a1-6)]Man(b1-4)GlcNAc(b1-4)[Fuc(a1-6)]GlcNAc
# Summary of the method: as §1
# [3] = target: Fuc(a1-2)[GalNAc(a1-3)]Gal(b1-3)GlcNAc(b1-3)GalNAc
# Summary of the method: as §1
# [4] = target: Fuc(a1-2)[GalNAc(a1-3)]Gal(b1-3)GlcNAc(b1-6)GalNAc
# Summary of the method: as §1
# [5] = target: Fuc(a1-2)[GalNAc(a1-3)]Gal(b1-4)Glc
# Summary of the method: as §1
# [6] = target: Fuc(a1-2)[GalNAc(a1-3)]Gal(b1-4)GlcNAc
# Summary of the method: as §1
# [7] = target: Fuc(a1-2)[GalNAc(a1-3)]Gal(b1-4)GlcNAc(b1-2)Man(a1-3)[Fuc(a1-2)[GalNAc(a1-3)]Gal(b1-4)GlcNAc(b1-2)Man(a1-6)]Man(b1-4)GlcNAc(b1-4)GlcNAc
# Summary of the method: as §1
# [8] = target: Fuc(a1-2)[GalNAc(a1-3)]Gal(b1-4)GlcNAc(b1-2)Man(a1-3)[Fuc(a1-2)[GalNAc(a1-3)]Gal(b1-4)GlcNAc(b1-2)Man(a1-6)]Man(b1-4)GlcNAc(b1-4)[Fuc(a1-6)]GlcNAc
# Summary of the method: as §1
# [9] = target: Fuc(a1-2)[GalNAc(a1-3)]Gal(b1-4)GlcNAc(b1-3)Gal(b1-4)GlcNAc
# Summary of the method: as §1
# [10] = target: Fuc(a1-2)[GalNAc(a1-3)]Gal(b1-4)GlcNAc(b1-3)Gal(b1-4)GlcNAc(b1-3)Gal(b1-4)GlcNAc
# Summary of the method: as §1
# [11] = target: Fuc(a1-2)[GalNAc(a1-3)]Gal(b1-4)GlcNAc(b1-3)GalNAc
# Summary of the method: as §1
# [12] = target: Fuc(a1-2)[GalNAc(a1-3)]Gal(b1-4)[Fuc(a1-3)]GlcNAc
# Summary of the method: as §1
# [13] = target: Fuc(a1-2)[GalNAc(a1-3)]Gal(b1-4)[Fuc(a1-3)]GlcNAc(b1-3)GalNAc
# Summary of the method: as §1
# [14] = target: Fuc(a1-2)[GalNAc(a1-4)]Gal(b1-4)GlcNAc
# Summary of the method: as §1
# [15] = target: Fuc(a1-2)[GalNAc(b1-3)]Gal
# Summary of the method: as §1
# Fuc(a1-3)GlcNAc = target: Fuc(a1-3)GlcNAc
# Summary of the method: as §1
# [16] = target: Fuc(a1-3)[Gal(b1-4)]Glc6S
# Summary of the method: as §1
# [17] = target: Fuc(a1-3)[Gal(b1-4)]GlcNAc
# Summary of the method: as §1
# [18] = target: Fuc(a1-3)[Gal(b1-4)]GlcNAc(b1-2)Man
# Summary of the method: as §1
# [19] = target: Fuc(a1-3)[Gal(b1-4)]GlcNAc(b1-2)Man(a1-3)[Fuc(a1-3)[Gal(b1-4)]GlcNAc(b1-2)Man(a1-6)]Man(b1-4)GlcNAc(b1-4)GlcNAc
# Summary of the method: as §1
# [20] = target: Fuc(a1-3)[Gal(b1-4)]GlcNAc(b1-2)Man(a1-3)[Fuc(a1-3)[Gal(b1-4)]GlcNAc(b1-2)Man(a1-6)]Man(b1-4)GlcNAc(b1-4)[Fuc(a1-6)]GlcNAc
# Summary of the method: as §1
# [21] = target: Fuc(a1-3)[Gal(b1-4)]GlcNAc(b1-3)Gal(b1-3)[Fuc(a1-4)]GlcNAc
# Summary of the method: as §1
# [22] = target: Fuc(a1-3)[Gal(b1-4)]GlcNAc(b1-3)GalNAc
# Summary of the method: as §1
binder,measurement,setting,value
B1,glycan array binding signal (z-score),[1],-0.234
same,glycan array binding signal (z-score),[2],0.059
same,glycan array binding signal (z-score),[3],0.052
same,glycan array binding signal (z-score),[4],0.192
same,glycan array binding signal (z-score),[5],-0.163
same,glycan array binding signal (z-score),[6],-0.305
same,glycan array binding signal (z-score),[7],0.76
same,glycan array binding signal (z-score),[8],-0.297
same,glycan array binding signal (z-score),[9],-0.112
same,glycan array binding signal (z-score),[10],-0.168
same,glycan array binding signal (z-score),[11],-0.012
same,glycan array binding signal (z-score),[12],-0.293
same,glycan array binding signal (z-score),[13],7.35
same,glycan array binding signal (z-score),[14],-0.267
same,glycan array binding signal (z-score),[15],-0.14
same,glycan array binding signal (z-score),Fuc(a1-3)GlcNAc,-0.165
same,glycan array binding signal (z-score),[16],-0.202
same,glycan array binding signal (z-score),[17],-0.284
same,glycan array binding signal (z-score),[18],-0.038
same,glycan array binding signal (z-score),[19],-0.258
same,glycan array binding signal (z-score),[20],-0.168
same,glycan array binding signal (z-score),[21],0.096
same,glycan array binding signal (z-score),[22],-0.125
